# Source: the RNAGym collection of RNA variant scans (doi:10.7554/elife.90254)
# The source gives no read counts; variants with many changes may rest on few reads.
# B1: LINE1-full (parent)
# chain: UACGUAGGUGGUUUUCCCCUGAUAGUGCUAAGGGGGCCUGGAAGUUUGGACUGGGCAGAGCUCAACACAGCGUGGCAAAGUGGCUGUGGCUAGACUGCCUCUCUGGAUUCCUCGUCACUCAGCAGGGCAUCUCUGAGAGAAAUGCC
# Variants of: B1
# Assay: self-cleavage, relative activity (ratio to wild type); higher = more cleavage; in vitro, sequencing; the parent is a self-cleaving ribozyme
row,Variant,self-cleavage
1,G7U U47G G83A,0.27
2,A69G U73A A140U,0.3
3,A42G C76U U85C A121U U143C,0.31
4,U9A U46A U87C,0.29
5,A24G U26A U52C,1.77
6,A6G U104C G126A,1.07
7,U73C C84U A140G,0.56
8,U1C A30G U109A U115C,1.88
9,A78G U85A A142G,0.1
10,U15C C56G A77G A136G,0
11,A78G A121U C146U,0.49
12,A64G A77U A129G,0.39
13,U20A C113U G122U,1.1
14,U20A U81A U85A A92G A121G,0.32
15,U9A U87A U100C,0.18
16,C37G U62A G137A,0.08
17,U13A A64G A78G U100C,0
18,G83A U87C U100C U109C,0.11
19,G72U A136U A140G,0.99
20,U26A A57G C128U,0.85
21,A77U A129U U132C,1.52
22,U9A C63U A77U C103U,0.4
23,G4A G82A U96C,0.06
24,U14C A22G U52C U112A,0.62

row,Variant,self-cleavage
1,U87A U96A A138G,0.06
2,U13C U15C U47A U52A U85C,0.58
3,C3U U13C U73C U96C U143C,0
4,U26A G48A U81C,0.88
5,U26C A92U U109C A142G,1.05
6,G36A U47A G70A U91C A140G,0.02
7,U1A U39C U112C,1.04
8,U9C U112A A129G,2.04
9,U5C A22C C66U,0.21
10,U73C U130C A138G,2.36
11,U12G U15C U96C,0.65
12,U14C A67G U85A U102A,0.07
13,A2U U14C U62C,0.17
14,U47A G54A C68U U85C U108C A142G,0.1
15,G8A U45C G82A U91A,0.92
16,A64U A138G A140G,0.74
17,U20C A43G A65U C98A U100C U102C U119C A141G,0
18,U26A A67G A121G A140U U143A,0.38
19,A42U A107G U119C,0.6
20,A31G U112C U132A,0.99
21,U46C G54A U134A A142G,0.32
22,U20C U100C G144A,1.38
23,U20A U45A U87C U96C,0.29
24,A92G U112C G135A,0.04

row,Variant,self-cleavage
1,U39C U52C U87A,0.06
2,U15C U62C G72A G93U U109C,0.03
3,C19U A43U G53A A129G,1.66
4,U12G U45C U62A,0.24
5,G54A U87C U134C A142G,0.24
6,U15C U39A A69G U119C,0.59
7,A2G U9C U23C U85A,0.31
8,U96A U108C A141G,0.08
9,A94U U109C A136U,0.32
10,A67U U96A U115C,0.05
11,C17G A117G A124G,1.39
12,G25A U130C A142G,1.7
13,C16U A50U G55U,0.03
14,U9C U87C C128U,0.24
15,C76G A136G A141G,2.14
16,A24U U45C A67G U96A,0.66
17,U9G U45C U96C,0.51
18,A42G G48A G49U U62A U134A,0.02
19,U1C U12G U52A,0.7
20,U9A A65G A94G,0.11
21,U45C U100C A107G,1.93
22,A31U A43G A129U,0.94
23,U45C A67G A140G,0.28
24,U9C U13C U47C A59G,0.37

row,Variant,self-cleavage
1,A6U U12C U15A A22U A77U,1.24
2,A2U A57G A69G A78G,0
3,U12C C63A U96A,0.04
4,U62C A65G A79U U100C A142G,0
5,G72A U73C U115A A117G C145A,1.91
6,U1C A43G G55A A64U A107G,0.24
7,A42U A59G U132G,0
8,U14C A31G U119C A121G,2.3
9,A24G U26C A65G A78G G137A,0
10,G35U A42G U130C,1.64
11,A78U U85C U130C,0.29
12,U5C G36U U46A U85C A92G,0.09
13,U45C G58A U143G,0.06
14,A64U A79G C103A U104C U134A,0.06
15,U13C G21A U26A U45C U46C A79G U130A A142G,0
16,U12C G106A A142G,1.75
17,U14C C113U A141G,1.24
18,U13C U96C U132A,0.09
19,U52C A138G A142G,1.44
20,U100C A107G C146U,2.4
21,G34A U47A A57G,0.61
22,A69G U112C U134C,0
23,A2G U15C U100A U119C U132C,0.61
24,G10A U26C A121G,1.11

row,Variant,self-cleavage
1,A22G A94G C120A,0.6
2,U13C A129U A142G,0.58
3,U1C U62C U115G A121U A140G,0.13
4,G36A G58U U100G,0.05
5,A31G A78G U119A,1.53
6,C51U A78G A92G A94G A124G,0
7,U81A A117C G127U U134C,2.3
8,A22U U73G U96C U112C,0.15
9,G27A C76U A121G,1.85
10,A57U U73C A121U,0.11
11,G41U A78U U108C,2.14
12,A31G U47A U52C,0.61
13,U14A A59G U100C C116U U134C,0
14,A6G U20C A42G U102A A124U A138G,1.38
15,A22U U46A U52C,0.87
16,U14C A30G A141G,0.33
17,U5A G70U U143A,0.06
18,A50G G88A U108C A141G,0
19,U14A A31U A78G,0.96
20,U46C U62C U134C,0.05
21,U46C U73C U115A A124G,2.3
22,A42G A69G A121G,1.75
23,U47C A77U U109C A140G A142G,0.55
24,U14A U104C C116U,1.31

row,Variant,self-cleavage
1,U12C A79G C99U,0.39
2,U87C G89A U115C U119A,0.02
3,U20A A43G U134C,1.45
4,G44U U45C U47C U112C,1.9
5,G27A U96C U109A A121G,0.04
6,U13C A50G A141U,0.68
7,C37A C71A A121U,0.21
8,A22U U52C C63U,0.45
9,U9C U29A G106U A117G,1.6
10,U9A U104C A117G,1.84
11,U9C A121U A140G,1.16
12,G8A U45G A140U,1.72
13,A42U U47C U115A U132C,1.7
14,U13C U47A U85A,0.06
15,U13C U73A A138G,1.55
16,U81A U91C A121G C133U,0.32
17,U62C U87G U109C,0
18,U1C C3A A30G,0.55
19,U20C U39C A77U A94G C133U U143A,0.35
20,G33U A94G A121U,0.22
21,U14C U73C U85C U112C,0
22,U52A U85C C113U,0.11
23,U13A U102C A124U,0.68
24,U9A A42G A50U A94G U109C,0

row,Variant,self-cleavage
1,U15C A43C U85C,0.2
2,A6U U87C A142G,0
3,A31G U39C U104A A121U,0.32
4,U14C U46C U87C,0.41
5,U15C A43G A78G,0.72
6,G10U U26A A43G A57G A59G,0
7,U12C U29C G48A A59G A136G U143A,0.12
8,U5C U13C A43G G54A,0.97
9,U12C U81C A140G,2.19
10,A42U U46C C95U U96A G97C A138G,0.01
11,U45A A69G A94U U104C,0.07
12,C38U C99A A141G,1
13,U20C U62A A138G,0.05
14,U115C A129G A136G,2.94
15,U15C A124U A138G,1.27
16,A78G U85C U96C,0.38
17,G4C C37G U115A,1.23
18,A30G G60U A142G,0.06
19,C28G A30U G35A G40A U52A U62C U96C,0.06
20,A6G A59G A92G,0.38
21,U1C A57G G72A C118U,0.98
22,A22G G58A U85C,0.17
23,U12C A92G U100C,0.22
